According to PMC5837747:
Results are given in words; binding and its absence hold for the method and conditions named. In cells and extracts the contact can be indirect. Some results given as binding are weak or reduced against the parent protein; the word gives no strength. For some assays here: Tags and fused reporters may be left off the sequences shown. Each block holds one substance with its values, some of them ahead of it.

Protein sequences, listed by entry. Tags and fused reporters are not part of them.
UniProt P31946: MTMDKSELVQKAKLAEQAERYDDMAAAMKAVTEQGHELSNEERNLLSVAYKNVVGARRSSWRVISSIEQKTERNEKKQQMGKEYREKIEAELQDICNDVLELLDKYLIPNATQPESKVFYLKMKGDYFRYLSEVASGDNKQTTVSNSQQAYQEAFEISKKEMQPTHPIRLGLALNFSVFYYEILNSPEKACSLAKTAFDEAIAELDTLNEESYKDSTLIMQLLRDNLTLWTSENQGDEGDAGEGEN

Assays:
[1] = target: GFP-CdGAP C-terminal domain (1083-1425) (mouse) (UniProt A6X8Z5); assay: co-IP; COS-7 cells co-transfected with GFP-CdGAP constructs and HA-14-3-3β, unstimulated or treated with PMA; GFP-CdGAP proteins immunoprecipitated from total cell lysates; immunoblot
GFP-CdGAP-S1163A (mouse) = GFP-CdGAP-S1163A (mouse) (UniProt A6X8Z5); assay: as above
GFP-CdGAP-S1093A (mouse) = GFP-CdGAP-S1093A (mouse) (UniProt A6X8Z5); assay: as above
[2] = target: T1, GFP-CdGAP BR (181-515) (mouse) (UniProt A6X8Z5); assay: as above
T1 sequence: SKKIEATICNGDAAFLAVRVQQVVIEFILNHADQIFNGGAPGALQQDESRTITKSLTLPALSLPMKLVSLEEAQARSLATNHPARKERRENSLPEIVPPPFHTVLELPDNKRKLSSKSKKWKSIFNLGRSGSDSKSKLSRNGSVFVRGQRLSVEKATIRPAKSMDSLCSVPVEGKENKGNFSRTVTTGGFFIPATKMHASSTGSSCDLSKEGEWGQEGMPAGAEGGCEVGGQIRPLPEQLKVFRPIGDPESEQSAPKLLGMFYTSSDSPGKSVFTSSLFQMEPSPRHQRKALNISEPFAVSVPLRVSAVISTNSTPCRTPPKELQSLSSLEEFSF

[3] = target: T2, GFP-CdGAP PRD (516-820) (mouse) (UniProt A6X8Z5); assay: as above
T2 sequence: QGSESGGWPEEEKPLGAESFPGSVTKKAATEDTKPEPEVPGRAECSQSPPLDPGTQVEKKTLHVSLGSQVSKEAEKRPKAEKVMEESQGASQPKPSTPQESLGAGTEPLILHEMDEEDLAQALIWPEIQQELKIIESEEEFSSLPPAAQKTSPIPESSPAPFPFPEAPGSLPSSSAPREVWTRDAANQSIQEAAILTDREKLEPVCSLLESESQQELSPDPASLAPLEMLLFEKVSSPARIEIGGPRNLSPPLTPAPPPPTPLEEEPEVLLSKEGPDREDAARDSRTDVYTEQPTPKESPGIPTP

[4] = target: GFP-CdGAP wild-type (mouse CdGAP) (mouse) (UniProt A6X8Z5); assay: as above
GFP-CdGAP-S272A (mouse) = GFP-CdGAP-S272A (mouse) (UniProt A6X8Z5); assay: as above
[5] = target: GFP-CdGAP-S1093A/S1163A (mouse) (UniProt A6X8Z5); assay: as above
[6] = target: T3, GFP-CdGAP N-terminal PBR-GAP fragment (1-221) (mouse) (UniProt A6X8Z5); assay: as above
T3 sequence: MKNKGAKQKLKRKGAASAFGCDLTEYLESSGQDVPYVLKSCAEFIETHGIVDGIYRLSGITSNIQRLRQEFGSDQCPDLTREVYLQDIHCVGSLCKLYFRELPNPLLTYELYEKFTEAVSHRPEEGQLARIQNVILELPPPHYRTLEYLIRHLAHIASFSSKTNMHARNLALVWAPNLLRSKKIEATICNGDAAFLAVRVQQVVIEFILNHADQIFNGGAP

[7] = target: Myc-tagged human CdGAP (hCdGAP) wild-type (human) (UniProt Q2M1Z3); assay: co-IP; COS-7 cells co-transfected with HA-14-3-3β and myc-hCdGAP constructs; Myc-hCdGAP proteins immunoprecipitated from total cell lysates in duplicates; blotted with anti-Myc and anti-HA
[8] = target: T4, Myc-tagged human CdGAP-Q683X (AOS-related mutant) (human) (UniProt Q2M1Z3); assay: as above
T4 sequence: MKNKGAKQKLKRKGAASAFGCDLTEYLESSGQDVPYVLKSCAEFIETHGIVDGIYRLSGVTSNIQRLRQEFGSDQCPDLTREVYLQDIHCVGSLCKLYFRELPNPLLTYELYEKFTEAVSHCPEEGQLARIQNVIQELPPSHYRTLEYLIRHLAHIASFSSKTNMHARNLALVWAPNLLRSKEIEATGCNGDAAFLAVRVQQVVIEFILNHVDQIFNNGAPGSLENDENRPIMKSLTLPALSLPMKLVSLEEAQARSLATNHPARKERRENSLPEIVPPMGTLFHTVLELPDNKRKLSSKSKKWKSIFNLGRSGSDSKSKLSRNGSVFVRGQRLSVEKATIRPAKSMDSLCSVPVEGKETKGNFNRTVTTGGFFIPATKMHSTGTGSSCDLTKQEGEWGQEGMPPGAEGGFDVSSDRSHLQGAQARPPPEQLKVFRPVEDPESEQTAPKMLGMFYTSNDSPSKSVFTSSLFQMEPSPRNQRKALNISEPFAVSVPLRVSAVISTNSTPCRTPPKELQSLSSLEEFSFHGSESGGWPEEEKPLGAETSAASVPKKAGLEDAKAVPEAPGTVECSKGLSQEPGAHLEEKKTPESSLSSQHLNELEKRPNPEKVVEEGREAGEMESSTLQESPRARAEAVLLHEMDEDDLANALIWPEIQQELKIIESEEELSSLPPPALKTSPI

[9] = target: Myc-tagged CdGAP (wild-type), expressed in HEK293 cells (not stated (human or mouse cDNA cloned)) (UniProt Q2M1Z3); assay: co-IP; HEK293 cells co-transfected with myc-CdGAP and HA-14-3-3 isoforms; Myc-CdGAP immunoprecipitated from total cell lysates, blotted with anti-Myc and anti-HA
[10] = target: endogenous CdGAP of MDA-MB-231 cells (human (endogenous in MDA-MB-231)) (UniProt Q2M1Z3); assay: co-IP; endogenous CdGAP immunoprecipitated with anti-CdGAP antibodies (rabbit IgGs as control) from lysates of MDA-MB-231 cells, with or without TGFβ (5 ng/ml) stimulation; immunoblot
[11] = target: HA-tagged 14-3-3β, expressed in HEK293 cells (UniProt P31946); assay: co-IP; HEK293 cells co-transfected with myc-CdGAP and HA-14-3-3 isoforms; HA-14-3-3 immunoprecipitated from total cell lysates, blotted with anti-Myc and anti-HA

binding [1]: binds
binding (GFP-CdGAP-S1163A (mouse)): binds
binding (GFP-CdGAP-S1093A (mouse)): binds
binding [2]: binds
binding [3]: no binding
binding [4]: binds
binding (GFP-CdGAP-S272A (mouse)): binds
binding [5]: binds weakly
binding [6]: binds
binding [7]: binds
binding [8]: binds
Substance: HA-tagged 14-3-3β, expressed in COS-7 cells (from UniProt P31946 1-246)

binding [9]: binds
Substance: HA-tagged 14-3-3β, expressed in HEK293 cells (from UniProt P31946 1-246)

binding [10]: binds
Substance: endogenous 14-3-3β of MDA-MB-231 cells (from UniProt P31946 1-246)

binding [11]: binds
Substance: Myc-tagged CdGAP (wild-type), expressed in HEK293 cells (from UniProt Q2M1Z3 1-1444)
